# Laboratory results from FireProtDB (doi:10.1016/j.ijbiomac.2019.10.153).
# Details: Homo sapiens, pH 7.5, 25 °C, Urea, transition: 2, reversible: yes
substance,measurement,setting,value
Triosephosphate isomerase wild type (no sequence given),denaturant m value,CD,0.55 kcal/mol/M
same,denaturant midpoint (higher = more stable),CD,4.81 M
same,unfolding free energy,CD,2.65 kcal/mol
same,denaturant m value,absorbance,0.56 kcal/mol/M
same,denaturant midpoint (higher = more stable),absorbance,4.78 M
same,unfolding free energy,absorbance,2.68 kcal/mol
